Laboratory results taken from PubChem BioAssay AID2528 (National Center for Advancing Translational Sciences (NCATS), 2010).
Screen size: about 350,000 compounds; about 700 (0.2%) were called active. Inconclusive results, whose numbers are uncertain, are shown with a selection of clear calls. Calls come from the whole dose curve; as a rule, active = well fitted inhibition curve with a large enough effect; inconclusive = small, poorly fitted or top-dose-only effect; inactive = flat fitted curve, though single readings scatter. No potency is given beside an inconclusive call; the fits are too rough.

These molecules were tested against RecQ-like DNA helicase BLM (Homo sapiens) (UniProt P54132) (assay: qHTS Assay for Inhibitors of Bloom's syndrome helicase (BLM)). Conditions: recombinant BLM DNA unwinding, fluorescence dequenching; series mostly up to 56.1 µM.
Note: nearly all actives have a fitted effect of over 35% in size.
Potency is the fitted concentration of half-maximal effect; tags give direction and shape of the fitted curve.

Sequence of UniProt P54132 (P54132 whole entry, looked up): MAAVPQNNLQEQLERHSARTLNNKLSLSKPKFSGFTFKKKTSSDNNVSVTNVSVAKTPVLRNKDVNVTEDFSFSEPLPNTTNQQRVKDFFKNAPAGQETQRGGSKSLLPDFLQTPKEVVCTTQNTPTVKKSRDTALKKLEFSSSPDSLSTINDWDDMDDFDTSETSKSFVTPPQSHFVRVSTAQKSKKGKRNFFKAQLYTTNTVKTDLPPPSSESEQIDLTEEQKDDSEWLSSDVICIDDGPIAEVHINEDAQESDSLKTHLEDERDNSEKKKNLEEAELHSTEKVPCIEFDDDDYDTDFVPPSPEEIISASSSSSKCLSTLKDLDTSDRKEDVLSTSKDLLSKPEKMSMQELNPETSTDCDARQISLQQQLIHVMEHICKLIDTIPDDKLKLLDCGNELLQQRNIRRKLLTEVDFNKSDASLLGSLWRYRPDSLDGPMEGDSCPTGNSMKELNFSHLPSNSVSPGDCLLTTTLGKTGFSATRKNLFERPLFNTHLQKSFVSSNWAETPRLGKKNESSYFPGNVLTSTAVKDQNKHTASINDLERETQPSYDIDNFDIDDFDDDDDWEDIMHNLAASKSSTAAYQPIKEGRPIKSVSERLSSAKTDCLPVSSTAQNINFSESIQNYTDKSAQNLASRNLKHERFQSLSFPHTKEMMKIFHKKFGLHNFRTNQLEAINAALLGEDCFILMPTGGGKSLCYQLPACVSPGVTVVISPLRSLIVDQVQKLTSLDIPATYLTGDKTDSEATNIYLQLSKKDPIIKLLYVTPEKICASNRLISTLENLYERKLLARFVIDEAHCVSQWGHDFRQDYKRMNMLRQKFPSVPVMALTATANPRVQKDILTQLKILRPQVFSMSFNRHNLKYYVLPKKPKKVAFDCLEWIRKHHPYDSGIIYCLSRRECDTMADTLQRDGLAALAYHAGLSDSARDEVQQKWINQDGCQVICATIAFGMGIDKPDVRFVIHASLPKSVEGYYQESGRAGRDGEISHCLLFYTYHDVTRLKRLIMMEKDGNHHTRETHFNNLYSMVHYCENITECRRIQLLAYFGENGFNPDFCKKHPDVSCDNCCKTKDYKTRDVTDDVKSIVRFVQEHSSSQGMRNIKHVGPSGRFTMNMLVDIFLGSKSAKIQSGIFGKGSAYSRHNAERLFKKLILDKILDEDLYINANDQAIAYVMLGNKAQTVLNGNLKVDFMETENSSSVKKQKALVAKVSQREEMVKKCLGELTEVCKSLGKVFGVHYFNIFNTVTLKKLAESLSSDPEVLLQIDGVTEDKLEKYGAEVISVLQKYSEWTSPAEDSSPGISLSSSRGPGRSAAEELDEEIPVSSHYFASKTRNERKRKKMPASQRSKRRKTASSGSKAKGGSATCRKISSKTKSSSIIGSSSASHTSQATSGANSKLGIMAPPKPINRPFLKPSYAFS

Structure (SMILES)	Potency
S=C(Nc1ccc2nsnc2c1)N1CCCC1	active: 7.94 µM
Cc1csc(C(C#N)C(=O)c2ccc(S(=O)(=O)N3CCCC3)cc2)n1 (stereo not given)	inactive
Oc1ccc(/C=N/N=C(c2ccccc2)c2ccccc2)c(O)c1O	inconclusive [inhibitor, partial curve]
COc1ccc(O)c(C(=O)c2cc(SCC(=O)O)c3nc4sc5c(c4c(=O)n3c2)CCCC5)c1	active: 22.4 µM
CCCN(CCC)C(=O)c1ccc2c(=O)n(Cc3ccco3)c(=S)[nH]c2c1	inconclusive [inhibitor, single point]
CCc1cc(=O)oc2cc(C)c(CN3CCCC(C)C3)c(O)c12 (stereo not given)	inconclusive [inhibitor, partial curve]
O=C(NC1=C(NC2CCS(=O)(=O)C2)C(=O)c2ccccc2C1=O)c1ccccc1 (stereo not given)	inconclusive [inhibitor, single point]
O=C1C=CC(=O)c2c(O)c(Cl)c(Cl)c(O)c21	inconclusive [inhibitor, single point]
CCOc1ccc(Nc2nc(-c3cccc(Cl)c3)c3c(n2)-c2ccccc2OC3)cc1	inconclusive [inhibitor, single point]
COc1ccc(NC(=O)c2ccco2)cc1NC(=O)COc1ccc(C)c(C)c1	inconclusive [inhibitor, single point]
CCOc1ccc(-c2nc(Cn3c(=O)cc(C)c4c(C)nn(-c5ccccc5)c43)c(C)o2)cc1	inactive
CCN(CC)C(=O)c1ccc(Nc2nnc(-c3ccc(O)cc3)c3ccccc23)cc1	inactive
COc1c(O)cc2oc(-c3ccc(O)c(O)c3)cc(=O)c2c1O	inconclusive [inhibitor, partial curve, poor fit]
CCn1c2ccccc2c2cc(NC(=O)c3ccccc3-c3ccccc3C(=O)O)ccc21	inconclusive [inhibitor, single point]
C[N+]1(C2CCC3CCC2C3O)CCCC1 (stereo not given)	inactive
CCN(CC)c1ccc2nc3ccccc3[n+](CC)c2c1	inconclusive [inhibitor, single point]
Cc1ccc(-n2nnnc2SCc2nc3sc(C)c(C)c3c(=O)[nH]2)cc1	inactive
COc1cccc(/C=N/NC(=O)C(=O)NCc2cccnc2)c1OC	inactive
COc1cc2c(C#N)c(N3CCOCC3)nc(N)c2c(N)n1	inconclusive [inhibitor, single point]
Cc1cccc(N=C2NC(=O)/C(=C/C=C/c3ccco3)S2)c1C	inconclusive [inhibitor, single point]
